In all, about 33,000 sequences were measured (“E-score (-0.5 to 0.5)”: median about -0.041, highest 2% from about 0.37 on). The list shows a part of the results.
What follows are sequences tested against T1, Ecm22 (UniProt Q05958) (assay: PBM E-score (8-mer binding enrichment) (E-score (-0.5 to 0.5)); higher = stronger / more preferred TF binding; most listed sequences are background and not binding sites). Settings: protein concentration: 200 nM; construct: GST-full length.
T1 sequence: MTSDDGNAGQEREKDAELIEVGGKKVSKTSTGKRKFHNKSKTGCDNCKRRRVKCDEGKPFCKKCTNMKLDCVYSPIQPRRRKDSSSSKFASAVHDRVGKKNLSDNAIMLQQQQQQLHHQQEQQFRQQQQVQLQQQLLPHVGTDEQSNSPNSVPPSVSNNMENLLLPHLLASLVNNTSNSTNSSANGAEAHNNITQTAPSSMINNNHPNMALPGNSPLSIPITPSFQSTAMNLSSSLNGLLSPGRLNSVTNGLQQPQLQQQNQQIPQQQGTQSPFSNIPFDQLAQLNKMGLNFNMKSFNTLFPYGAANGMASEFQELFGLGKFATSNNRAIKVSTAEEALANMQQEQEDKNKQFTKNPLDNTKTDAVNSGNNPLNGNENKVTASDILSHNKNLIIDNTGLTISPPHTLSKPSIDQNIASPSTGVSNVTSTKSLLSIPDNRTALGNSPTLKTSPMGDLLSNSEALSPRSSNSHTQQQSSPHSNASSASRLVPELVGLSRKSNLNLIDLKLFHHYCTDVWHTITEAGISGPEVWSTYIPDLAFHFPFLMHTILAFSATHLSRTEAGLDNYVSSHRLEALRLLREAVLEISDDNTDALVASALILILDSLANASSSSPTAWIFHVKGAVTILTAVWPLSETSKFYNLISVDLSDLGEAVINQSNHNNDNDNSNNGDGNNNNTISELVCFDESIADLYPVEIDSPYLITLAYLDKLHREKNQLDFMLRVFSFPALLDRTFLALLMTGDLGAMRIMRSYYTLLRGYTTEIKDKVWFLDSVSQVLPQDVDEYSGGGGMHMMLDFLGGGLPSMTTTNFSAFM
How it was run: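 The E-score, a modified Wilcoxon-Mann-Whitney statistic, was computed by the Universal PBM Analysis Suite for every ungapped eight-base word pooled with its reverse complement. Scans behind it were normalised with masliner after bound GST-tagged yeast transcription factors were detected with fluorescent anti-GST. The proteins, at about 100-200 nM, had been applied to universal all-10-mer Agilent arrays made double-stranded by primer extension.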
In the case of ACTATTTG, the “PBM E-score” value is reported as -0.0828.
With AACCTGTA the “PBM E-score” value was -0.0704.
CTTGGCTA was tested, and the “PBM E-score” value was -0.219.
In the case of CCCAGGAA, the “PBM E-score” value is reported as -0.176.
CCACCCTC was tested, and the “PBM E-score” value was -0.133.
For ATGCCGAA, the “PBM E-score” value was 0.0525.
In the case of ATTCGAAT, the “PBM E-score” value is reported as -0.0782.
In the case of GAAGACGA, the “PBM E-score” value is reported as 0.123.
In the case of ACGTTGCA, the “PBM E-score” value is reported as 0.156.
AAGAGGTA was tested, and the “PBM E-score” value was -0.0785.
With GACATCTC the “PBM E-score” value was 0.0453.
In the case of AACGCTTA, the “PBM E-score” value is reported as -0.00672.
In the case of CGTTGTAG, the “PBM E-score” value is reported as 0.0854.
With TATGCGAA the “PBM E-score” value was 0.333.
For CTTAGGCA, the “PBM E-score” value was -0.397.
In the case of ACCGTCAC, the “PBM E-score” value is reported as -0.235.
CAAAGGAA was tested, and the “PBM E-score” value was 0.149.
With CATTTGGG the “PBM E-score” value was 0.125.
With AAGTCTAT the “PBM E-score” value was -0.187.
In the case of AGGTATCG, the “PBM E-score” value is reported as 0.153.
In the case of CGCTATTA, the “PBM E-score” value is reported as 0.169.
With CTGGGGTC the “PBM E-score” value was -0.115.
With CACCAATA the “PBM E-score” value was -0.0897.
For CGCACGTC, the “PBM E-score” value was 0.00508.
GAGCCGTA was tested, and the “PBM E-score” value was 0.322.
With GCAATTCA the “PBM E-score” value was -0.078.
In the case of AGCTGGCG, the “PBM E-score” value is reported as 7e-05.
CCCCACTC was tested, and the “PBM E-score” value was 0.00604.
With ACCTGCTC the “PBM E-score” value was 0.00367.
In the case of CATGTAAC, the “PBM E-score” value is reported as -0.00076.
TAGAGTGA was tested, and the “PBM E-score” value was -0.268.
With AGACTAAT the “PBM E-score” value was -0.182.
For ACCAGATA, the “PBM E-score” value was 0.188.
With ACAAAGCT the “PBM E-score” value was -0.117.
For AATAGTAG, the “PBM E-score” value was -0.0269.
GTCATACA was tested, and the “PBM E-score” value was -0.149.
With AAAGTACG the “PBM E-score” value was 0.336.
For CGCAATTA, the “PBM E-score” value was 0.00541.
With GTTTGATA the “PBM E-score” value was 0.0927.
For ATTATACC, the “PBM E-score” value was 0.104.
With CTCTAGTC the “PBM E-score” value was -0.181.
TGACCCAA was tested, and the “PBM E-score” value was -0.284.
ATATTGCA was tested, and the “PBM E-score” value was 0.2.
For TAGCCAAA, the “PBM E-score” value was 0.0563.
ATATCGCC was tested, and the “PBM E-score” value was -0.0455.
In the case of GCCTTCAA, the “PBM E-score” value is reported as -0.277.
In the case of AGTGCATG, the “PBM E-score” value is reported as -0.0692.
In the case of AACACACT, the “PBM E-score” value is reported as 0.00223.
With CCTAGCGC the “PBM E-score” value was -0.311.
ACTTTCAC was tested, and the “PBM E-score” value was -0.05.
CAACCGTC was tested, and the “PBM E-score” value was -0.0801.
For AGTCGGAG, the “PBM E-score” value was -0.122.
GGCACGTA was tested, and the “PBM E-score” value was 0.0712.
With ATACGGGG the “PBM E-score” value was 0.386.
CTTTCGAC was tested, and the “PBM E-score” value was 0.0201.
With GCAACGGC the “PBM E-score” value was 0.14.
AAACTGGC was tested, and the “PBM E-score” value was -0.184.
For ATCAGAAC, the “PBM E-score” value was 0.0763.
With CCTTGCGA the “PBM E-score” value was -0.019.
In the case of AGGGGGTA, the “PBM E-score” value is reported as -0.275.
In the case of AGCTGGCA, the “PBM E-score” value is reported as -0.0695.
With ACGCATAA the “PBM E-score” value was 0.0983.
For ACACATTA, the “PBM E-score” value was 0.031.
With GCCACTAC the “PBM E-score” value was -0.125.
With AGCCCTGG the “PBM E-score” value was -0.233.
GGCCCTCA was tested, and the “PBM E-score” value was -0.375.
With AGTATCAT the “PBM E-score” value was 0.166.
For AGTCTTTA, the “PBM E-score” value was -0.0866.
For CCAAGACA, the “PBM E-score” value was -0.257.
In the case of CTCGCGAC, the “PBM E-score” value is reported as 0.26.
With ATAGATAG the “PBM E-score” value was -0.33.
With ACGCACAT the “PBM E-score” value was 0.19.
For TACGGGCA, the “PBM E-score” value was 0.357.
In the case of CCGAAACA, the “PBM E-score” value is reported as 0.185.
ACACGTCA was tested, and the “PBM E-score” value was -0.16.
With ATTCCTCA the “PBM E-score” value was -0.205.
AGCTGGAA was tested, and the “PBM E-score” value was -0.0474.
With CTTGACTA the “PBM E-score” value was -0.186.
For CCAAGCAG, the “PBM E-score” value was -0.22.
AACCAGTC was tested, and the “PBM E-score” value was -0.105.
In the case of AGGCGTGG, the “PBM E-score” value is reported as -0.211.
For AATCTGTG, the “PBM E-score” value was -0.0802.
In the case of AACTAGCG, the “PBM E-score” value is reported as 0.0768.
In the case of AGACGGCG, the “PBM E-score” value is reported as -0.0146.
With CTCATGAC the “PBM E-score” value was -0.0185.
With CTAACCCC the “PBM E-score” value was -0.284.
With GAGGGATA the “PBM E-score” value was 0.104.
With CGCTTACG the “PBM E-score” value was 0.292.
ATTACGTG was tested, and the “PBM E-score” value was -0.0556.
GGATCTAA was tested, and the “PBM E-score” value was 0.0077.
In the case of ACACTCCA, the “PBM E-score” value is reported as -0.028.
CTATCAGC was tested, and the “PBM E-score” value was -0.156.
CCATTGAA was tested, and the “PBM E-score” value was -0.131.
For GGATCGTA, the “PBM E-score” value was 0.434.
With GTCGGCTA the “PBM E-score” value was 0.102.
With AGATCTAA the “PBM E-score” value was -0.0535.
AGAGTGCG was tested, and the “PBM E-score” value was 0.0549.
GCCCGTAA was tested, and the “PBM E-score” value was 0.221.
For CAGAGAAG, the “PBM E-score” value was -0.00762.
For GGAATAGA, the “PBM E-score” value was -0.0728.
With GAAGTTGA the “PBM E-score” value was 0.0401.
In the case of AAGGGTAT, the “PBM E-score” value is reported as -0.0533.
CGACCGAA was tested, and the “PBM E-score” value was 0.161.
ATGAACAG was tested, and the “PBM E-score” value was -0.0283.
For CAGGCGTC, the “PBM E-score” value was -0.1.
ACTGACAG was tested, and the “PBM E-score” value was 0.152.
In the case of AGGCTGAC, the “PBM E-score” value is reported as -0.219.
For CCATAATC, the “PBM E-score” value was -0.223.
For AAGCTAGC, the “PBM E-score” value was -0.0471.

From the supplement of paper PMC3334620
